The list shows a part of the results.
system: PfAP2-HC AP2 domain (GST-tagged); assay: gcPBM binding intensity (ln(normalized median fluorescence intensity)); higher = stronger DNA binding
Summary of the method: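 Plasmodium falciparum DNA-binding domains carrying a GST tag were expressed in E. coli and applied for 1 h, at about 25 μg on average, to an Agilent 4 × 180k array. The array held primer-extended double-stranded 36-bp intergenic genomic probes together with negative controls, and binding took place in 1× PBS with 1% milk, 0.2 mg/ml BSA, 0.5% salmon testes DNA and 0.03% Triton X-100. An Alexa488 anti-GST antibody detected bound protein, and the array was scanned at 488 nm. Binding intensity is taken as the highest Masliner-normalised natural-log median intensity across replicate spots of either probe orientation.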

| Sequence | gcPBM binding intensity (ln) |
| --- | --- |
| AAATAAAATATTACATGTACATGTTCATAAAAAAAA [XGTACX_site1067] | 9.61 |
| TACATACACAGACACACACACATATATATATATATA [CACACA_site3557] | 10.9 |
| AATAAAAAGGAACACACACACACACCGATATATATA [CACACA_site5895] | 11.2 |
| AATATATACATATATACACACACATATATTATATAT [CACACA_site7980] | 10.1 |
| TAAATATAAGTGTACATACACACTTTACAATCTCAT [CACACA_site3006] | 9.73 |
| TTATACGATAATATGACACACAATACAAAAATGTAA [CACACA_site1918] | 9.86 |
| CCTATAAAACCATATACACACATATATATAAAAAAA [CACACA_site4013] | 9.83 |
| TGTTTCTAAAAATTTACACACAAAATATTTCTACAT [CACACA_site4098] | 9.98 |
| TGGGTATATATAAAAGGTACACAAAATGAAGATATA [XGTACX_site4994] | 9.67 |
| TAATTTCTTATGTATTGTACAAATAATATATTATAT [XGTACX_site1037] | 9.69 |
| TTTTCTGTGTTTTTGGGTACACACAAATAGCTTGTA [XGTACX_site8553] | 9.9 |
| ATGGTTTAATTATATACACACTCGAAAATAACGACA [CACACA_site3258] | 9.64 |
| TGATATTATATTGTGATGCACTTTAAAAATATAAAG [GTGCAC_site9509] | 9.25 |
| CTTATTTTATTCGAATGTACATAATTGTTAGACATT [XGTACX_site8583] | 9.56 |
| AAAAAAAGGATGTACGTATCATAATTTTATTTTATA [CACACA_negctrl_site1543] | 9.68 |
| TTTTACAAATGTTTTACACACACATAATTGTATCAA [CACACA_site4166] | 9.92 |
| AATAATAACAAATGAACACACATATAGATGAGCAAA [CACACA_site7076] | 10.3 |
| CTTAAGTAAAATTAAAGTACATGGACAAAAAATATA [XGTACX_site7900] | 9.62 |
| TATCTCATGCGCACAAAAATATATGCAAAGAGTATA [TGCATGCA_negctrl_site201] | 9.54 |
| ATATGTGTTAAAAATGCACACAAAAAAATATACATA [CACACA_site7988] | 10 |
| CAATTTTACTCATAAACACACATATATATGTTATTA [CACACA_site3152] | 9.8 |
| ATAAAAATGTATATATGTACATATATATATATATAT [XGTACX_site1505] | 10.4 |
| TTTTTTTTTTTTAATACACACATATATATATTTATT [CACACA_site3994] | 9.76 |

| Sequence | gcPBM binding intensity (ln) |
| --- | --- |
| GTAAAAAAAAAAAAATGTACACATATATATAATATA [XGTACX_site159] | 9.6 |
| AACATAATTAAAAATTGTACAGAATTTCAATCGAAA [XGTACX_site7542] | 9.62 |
| CATATACATACACATACACACATACAGACATACACA [CACACA_site6919] | 10.2 |
| GGGAAAGAACCATATACATGCATATTTACCGTTAAA [TGCATGCA_site519] | 9.57 |
| TGAAATTTTATTAATGTGCACATATATTTATTGTTC | 9.76 |
| CTTTTTAATTAATACACACACACACCCATATATATA [CACACA_site2292] | 10.6 |
| ATCACTTGAGAATAATTACATTAATATATATTTATG [TGCATGCA_negctrl_site581] | 9.48 |
| ATATTATCCCTATTTGCACACAAGAGTAATTTTTTA [CACACA_site3908] | 9.87 |
| TTTCTTTCTATTGTTATATTTATAATAATTATAATT [XGTACX_negctrl_site215] | 9.72 |
| TATAAAATTACATTTTGTCATTTATTTTTTCCCACT [TGCATGCA_negctrl_site110] | 9.49 |
| TGTTTAAGTGTTTTTAGTACTTATAAAAATATTATC [XGTACX_site7379] | 9.39 |
| TGATGATATAAAAACACACACATATAACATAATACT [CACACA_site6687] | 10.5 |
| TTATTATATATAAGTAGTACAAACAATTAAGAGATA [XGTACX_site4009] | 9.87 |
| TTTCTAATATATAAAGTGCAATACCATTCAGAGTTA | 9.5 |
| ATTGTCTTTTAATAGTGTACTTATTTTAAATATTGC [XGTACX_site8517] | 9.71 |
| TTTTATAGAGTGTATACATGCAATACCACATAAAAT [TGCATGCA_site476] | 9.57 |
| ATATGGAAGAATTAAAGTACTTAAAAAAATGTCAGT [XGTACX_site6837] | 9.83 |
| AAGAAAATAAAATAAAATAAAATAAAATAAAAATAT [TGCATGCA_negctrl_site493] | 9.71 |
| TATAATTTATAAGTAGTGCATTTCTTTTCATTTTTA | 9.5 |
| TAACTATATTTTTACTGTACAAAAAAATTAAATAAT [XGTACX_site1765] | 9.4 |
| ATATTAATTCTACATTGTACACATGAAAAAATATAA [XGTACX_site8759] | 9.51 |
| AAAACACAAAAAAAATGTACACATATATATATATAT [XGTACX_site8509] | 10.1 |
| CTAAGAAAAAATAAAGCACACAAATATTTTAAAAAC [CACACA_site9094] | 9.93 |

| Sequence | gcPBM binding intensity (ln) |
| --- | --- |
| CATTATGTCGTAAATACACACATACAGATACATACA [CACACA_site4880] | 10 |
| AAATTAAATAAATTTACACACTAAAAATTACAGATA [CACACA_site4722] | 9.75 |
| GTTATATATAATAATTGTACAAAATTAAATATAACT [XGTACX_site4189] | 9.51 |
| TTTTTATTTGGTTGTGTACACATATATATATATATA [CACACA_site5844] | 9.84 |
| AAAAAACACCCACATACACACAAAAATGTTATAAAT [CACACA_site81] | 10.3 |
| AATAAATTATGAACGGTGCAGGAAAAATTGTAACAT | 9.87 |
| TAGATTATTTTATTTAGTACATAAAAAAGTAAGACC [XGTACX_site7889] | 9.65 |
| CAAAAAAACAAACACACACACACACCGATATATATA [CACACA_site9218] | 10.5 |
| AAACATAAGGGACACACACACATATATATATATATA [CACACA_site5920] | 10.3 |
| TGAAGTGCAAAATACTGTACGTAATGTGCTTGTTAC [XGTACX_site4512] | 9.71 |
| AAAAAAAAATGTCATGGTACACAATTTTTTCTTTTT [XGTACX_site4505] | 9.76 |
| TAAAGTAAAACAAGGTAAGGTTTTTCTTTTTCTTTT [CACACA_negctrl_site1271] | 9.35 |
| AAAAAGAATAAATAAATATAAATAAATAAATATATA [GTGCAC_negctrl_site336] | 9.61 |
| ACATATAGAAGTATCTATAAACAGTGATAGCATTTT [CACACA_negctrl_site1122] | 9.69 |
| CAATCTTTTACGAATACACACACATAAAGAAAAAAA [CACACA_site8367] | 9.93 |
| TTAAATAAATAAAAATGTACATGCATATATAAATAT [XGTACX_site8908] | 9.75 |
| AATTTTTTATATGTCACACATTTGTTATTATTATTA [CACACA_site4197] | 9.88 |
| GAGTAAATAAATAAATGTACATATATATATATTATC [XGTACX_site8466] | 9.74 |
| ATACATAAATATTGATGTACTCATTTAATATATTAT [XGTACX_site3992] | 9.61 |
| AATATATATATATATATATATTTTTGTTAGAATATG [XGTACX_negctrl_site58] | 9.46 |
| TATAATAAATATTAACGTACTCATATATATATATAT [XGTACX_site3871] | 9.61 |
| GCAAGGAAATAATTGATAATATATATATATATATAT [GTGCAC_negctrl_site400] | 9.42 |
| AGGCTACGAATAGAATGTACCCGAAATAAGGAATAT [XGTACX_site6012] | 9.5 |

| Sequence | gcPBM binding intensity (ln) |
| --- | --- |
| TATGTAAATCTCTTAAGAATTCGCTATATCTCTTTT [CACACA_negctrl_site1180] | 9.54 |
| ATATAAGCGTATACATGTACATATATATCTTTGTAA [XGTACX_site2742] | 9.69 |
| CTAAAATACGGACACACACACACATATATATATATA [CACACA_site6138] | 11.4 |
| ATTGTATATAAATGAGTGCATACTATGTTGTTCTTA [GTGCAC_site9678] | 9.72 |
| ATTATCTCCGCCATGTGGACACATATAAGACATTTT [XGTACX_site2889] | 9.8 |
| AAAAAAAAAAAAAACACACACACAAAAAAAAATATA [CACACA_site1104] | 11.3 |
| AAATTAGAAATACCTACACACTTATCAAAATAAATT [CACACA_site7132] | 9.87 |
| ATAATTATGAAGCATACATGCATGTCCTGGCTTAAA [TGCATGCA_site491] | 9.51 |
| AAAATATGTAGACACATACACACATATATATATATA [CACACA_site1221] | 9.89 |
| TTTTTTTTTTCAAATGCATGCAAAAAAAAAAAAATA [TGCATGCA_site945] | 9.04 |
| TATATGTATGTTTGTTTGTTTGTATTTTTTAAGGTA [XGTACX_negctrl_site619] | 9.96 |
| TTTTCTTTTTCCAAAAGTACGTAATTTAAACATTTT [XGTACX_site2066] | 9.49 |
| ATCTAAATTTTTCCATGTACATATACTTTTATGCAT [XGTACX_site2683] | 9.82 |
| TTATAATATGGATACACACACATATATAAATATATA [CACACA_site5314] | 9.96 |
| AAAAAATAAATAAATACACACAAATCTATATTTATA [CACACA_site7243] | 9.81 |
| AATCACCAAATATGTACACACCTTAACATGTTTATA [CACACA_site5180] | 9.98 |
| ATTATTCATTTATGTAGTACATTTTAATACATTTAA [XGTACX_site3599] | 9.66 |
| AAGAAAAATTTAAACTGTACTTGTTTTCCAATGAAC [XGTACX_site4443] | 9.44 |
| AAAAAAAAAAAAGTTACACACAAATAAAATATTTGG [CACACA_site694] | 9.74 |
| ATAAAAAAAAATAAATGTACAAATTAACAAAATAAT [XGTACX_site5048] | 9.91 |

From the supplement of paper PMC11417369
